The record followed here is the BET-seq Pho4 binding data (Le et al. 2018).

The other results are listed elsewhere or left out. Values were computed here from the reads of four pooled replicates and scatter widely.

For this experiment, the target named is T1, Pho4 (S. cerevisiae) (UniProt P07270).
T1 sequence: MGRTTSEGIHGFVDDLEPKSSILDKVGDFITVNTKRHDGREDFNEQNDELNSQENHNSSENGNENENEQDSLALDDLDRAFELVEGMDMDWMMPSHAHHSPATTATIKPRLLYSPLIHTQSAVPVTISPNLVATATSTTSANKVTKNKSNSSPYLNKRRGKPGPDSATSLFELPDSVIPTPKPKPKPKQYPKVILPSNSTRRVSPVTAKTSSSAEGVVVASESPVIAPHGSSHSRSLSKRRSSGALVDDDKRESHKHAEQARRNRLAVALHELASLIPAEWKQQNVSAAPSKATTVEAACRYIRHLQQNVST
Nature of the experiment: relative binding free energy (BET-seq); higher = weaker binding. To be noted: reference: library average.
Take TGGTTCACGTGAGTGG: the “relative binding free energy” value amounted to 0.42 kcal/mol.

Consider TTTTTCACGTGGCGGA, for which the “relative binding free energy” value came out at 0.25 kcal/mol.

Regarding CGTTACACGTGATGTA, the “relative binding free energy” value turned out to be 0.09 kcal/mol.

Consider ATGTGCACGTGTTAAT, for which the “relative binding free energy” value was -0.01 kcal/mol.

Turning to TTAAGCACGTGGTGAG, the “relative binding free energy” value is -0.12 kcal/mol.

With AAGTGCACGTGTACTT, the “relative binding free energy” value turned out to be 0.08 kcal/mol.

For the sequence CTATTCACGTGGGTTG, the “relative binding free energy” value amounted to 0.07 kcal/mol.

In the case of TGTTTCACGTGACTCT, the “relative binding free energy” value came to 0.25 kcal/mol.

Regarding GTCTGCACGTGTGTTG, the “relative binding free energy” value is 0.05 kcal/mol.

As to GGGGGCACGTGTTCCG, the “relative binding free energy” value was -0.13 kcal/mol.

For TATATCACGTGTTTGC, the “relative binding free energy” value stood at 0.05 kcal/mol.

Take TTGTACACGTGCAGTA: the “relative binding free energy” value was 0.15 kcal/mol.

With GTTTTCACGTGACTGA, the “relative binding free energy” value was 0.52 kcal/mol.

For the sequence GCTTACACGTGTTAGG, the “relative binding free energy” value was determined as 0.16 kcal/mol.

Take TGGGTCACGTGCTATT: the “relative binding free energy” value came out at 0.08 kcal/mol.

In the case of ATAGGCACGTGATATG, the “relative binding free energy” value was -0.15 kcal/mol.

Take TGGTTCACGTGTATGG: the “relative binding free energy” value stood at 0.31 kcal/mol.

As to GTGCTCACGTGGGGCT, the “relative binding free energy” value amounted to 0.12 kcal/mol.

Turning to GTAAGCACGTGTACGG, the “relative binding free energy” value is -0.07 kcal/mol.

In the case of GTGTTCACGTGAATTA, the “relative binding free energy” value was determined as 0.36 kcal/mol.

TATCTCACGTGGTTTG: the “relative binding free energy” value was 0.21 kcal/mol.

TGGAACACGTGAATTT: the “relative binding free energy” value amounted to 0.16 kcal/mol.

Regarding CTTATCACGTGAGAGG, the “relative binding free energy” value is 0.25 kcal/mol.

For TAAGTCACGTGTTAGC, the “relative binding free energy” value came to 0.07 kcal/mol.

As for TTTCACACGTGAGGAG, the “relative binding free energy” value turned out to be 0.34 kcal/mol.

Consider GAGATCACGTGGTGCA, for which the “relative binding free energy” value was 0.15 kcal/mol.

Take TAGGTCACGTGAGATT: the “relative binding free energy” value was determined as 0.33 kcal/mol.

As for CGGGGCACGTGTTTGT, the “relative binding free energy” value is -0.21 kcal/mol.

Regarding GGCTTCACGTGTTGTA, the “relative binding free energy” value is 0.21 kcal/mol.

As to TGTAGCACGTGTTTTG, the “relative binding free energy” value is -0.02 kcal/mol.

Take AATGCCACGTGGTGTT: the “relative binding free energy” value was -0.31 kcal/mol.

Consider GGTATCACGTGTGAAG, for which the “relative binding free energy” value turned out to be 0.22 kcal/mol.

Regarding AGGTTCACGTGAGTTG, the “relative binding free energy” value was found to be 0.41 kcal/mol.

As to GATAACACGTGTTGAT, the “relative binding free energy” value was found to be 0.22 kcal/mol.

As to GATTGCACGTGCAGGG, the “relative binding free energy” value was found to be 0.04 kcal/mol.

With AGAGTCACGTGTATTA, the “relative binding free energy” value was 0.06 kcal/mol.

In the case of ATTTTCACGTGTCAGA, the “relative binding free energy” value was found to be 0.33 kcal/mol.

For CTTGGCACGTGGAGAT, the “relative binding free energy” value is -0.14 kcal/mol.

On to CGCTGCACGTGAGGGT, for which the “relative binding free energy” value stood at 0.17 kcal/mol.

For TGAATCACGTGGGTAT, the “relative binding free energy” value was -0.01 kcal/mol.

For GGGGACACGTGAGTTG, the “relative binding free energy” value was found to be 0.19 kcal/mol.

As to AAAGGCACGTGTAGGT, the “relative binding free energy” value was -0.14 kcal/mol.

As to TTTGACACGTGATATT, the “relative binding free energy” value came to 0.11 kcal/mol.

For the sequence TAGAGCACGTGTCGCG, the “relative binding free energy” value was -0.09 kcal/mol.

As to GTTAGCACGTGGTCAA, the “relative binding free energy” value is -0.07 kcal/mol.

For ATAATCACGTGATCGT, the “relative binding free energy” value was 0.28 kcal/mol.

In the case of TCGAGCACGTGGGTTG, the “relative binding free energy” value is -0.2 kcal/mol.

Regarding GCAGGCACGTGTGGAT, the “relative binding free energy” value is -0.01 kcal/mol.

On to TTGTTCACGTGTTACT, for which the “relative binding free energy” value came out at 0.2 kcal/mol.

As to TCTAACACGTGGGTTG, the “relative binding free energy” value is -0.11 kcal/mol.

On to CGTTGCACGTGATAAG, for which the “relative binding free energy” value was 0.1 kcal/mol.

In the case of TGTTGCACGTGTAACG, the “relative binding free energy” value worked out at 0.04 kcal/mol.

As to AATTACACGTGCGTGG, the “relative binding free energy” value came to 0.05 kcal/mol.

CACTGCACGTGTGTGG: the “relative binding free energy” value came out at 0.07 kcal/mol.

For TTGATCACGTGACGGT, the “relative binding free energy” value worked out at 0.2 kcal/mol.

AACTTCACGTGTGGAT: the “relative binding free energy” value was determined as 0.28 kcal/mol.

Take GTCGTCACGTGGGTCA: the “relative binding free energy” value turned out to be 0.05 kcal/mol.

For the sequence TTGTGCACGTGCGCGG, the “relative binding free energy” value is -0.26 kcal/mol.

Turning to GAAGGCACGTGGTTTG, the “relative binding free energy” value is -0.19 kcal/mol.

On to GGTCGCACGTGGTTTG, for which the “relative binding free energy” value is -0.12 kcal/mol.

Consider TTTCACACGTGGGTCG, for which the “relative binding free energy” value was determined as 0.14 kcal/mol.

TTAGGCACGTGTTATG: the “relative binding free energy” value was -0.07 kcal/mol.

For the sequence ACGCTCACGTGGGGGG, the “relative binding free energy” value is -0.08 kcal/mol.

In the case of GTGTGCACGTGCTTGT, the “relative binding free energy” value is -0.09 kcal/mol.

Regarding TGGTGCACGTGATGGA, the “relative binding free energy” value amounted to 0.1 kcal/mol.

Regarding CGGTACACGTGTGGGG, the “relative binding free energy” value was 0.23 kcal/mol.

Consider GATATCACGTGATGAT, for which the “relative binding free energy” value came out at 0.35 kcal/mol.

Consider TATGTCACGTGAGCAG, for which the “relative binding free energy” value was determined as 0.35 kcal/mol.

In the case of TGTTACACGTGATTGC, the “relative binding free energy” value was found to be 0.26 kcal/mol.

For the sequence ATGTACACGTGTGGAG, the “relative binding free energy” value amounted to 0.23 kcal/mol.

Turning to TGTGCCACGTGTTAGG, the “relative binding free energy” value is -0.01 kcal/mol.

As to GTAGTCACGTGTGCAT, the “relative binding free energy” value turned out to be 0.07 kcal/mol.

Turning to TAGAGCACGTGATAGA, the “relative binding free energy” value amounted to 0.03 kcal/mol.

Consider TGGATCACGTGGTGAT, for which the “relative binding free energy” value is 0.18 kcal/mol.

With TAGGTCACGTGTGGAG, the “relative binding free energy” value was determined as 0.18 kcal/mol.

AGTAGCACGTGGTTAG: the “relative binding free energy” value was -0.15 kcal/mol.

Turning to GATGTCACGTGTGGGT, the “relative binding free energy” value was determined as 0.18 kcal/mol.

In the case of AATTTCACGTGAGGTT, the “relative binding free energy” value worked out at 0.36 kcal/mol.

Turning to TAGGTCACGTGAGTTA, the “relative binding free energy” value stood at 0.34 kcal/mol.

For the sequence GGGTTCACGTGTGCAG, the “relative binding free energy” value is 0.21 kcal/mol.

On to GATCTCACGTGGTTTT, for which the “relative binding free energy” value stood at 0.26 kcal/mol.

In the case of TGAGTCACGTGGCTAG, the “relative binding free energy” value was 0.02 kcal/mol.

On to GTGTTCACGTGGGCAT, for which the “relative binding free energy” value was 0.11 kcal/mol.

For GGTAGCACGTGATATA, the “relative binding free energy” value is 0.11 kcal/mol.

For the sequence GTGCACACGTGCGGGG, the “relative binding free energy” value was -0.03 kcal/mol.

Regarding TAGGACACGTGATTGG, the “relative binding free energy” value was 0.32 kcal/mol.

With TGTCGCACGTGGAGGA, the “relative binding free energy” value is -0.19 kcal/mol.

Consider AAGGTCACGTGGTCCG, for which the “relative binding free energy” value was 0.09 kcal/mol.

Consider TTTCGCACGTGGTGGA, for which the “relative binding free energy” value was -0.06 kcal/mol.

ACTTACACGTGTGGTT: the “relative binding free energy” value amounted to 0 kcal/mol.

Regarding ATAAACACGTGCGTTT, the “relative binding free energy” value was 0.05 kcal/mol.

With GTTCCCACGTGGGGTG, the “relative binding free energy” value is -0.11 kcal/mol.

For the sequence GTGCCCACGTGTTTTG, the “relative binding free energy” value worked out at 0.01 kcal/mol.

Take GTATTCACGTGGGTTT: the “relative binding free energy” value came out at 0.17 kcal/mol.

On to TATAGCACGTGGCATT, for which the “relative binding free energy” value is -0.11 kcal/mol.

Regarding AAGGGCACGTGCGTGT, the “relative binding free energy” value is -0.22 kcal/mol.

Regarding TCAGGCACGTGATGTT, the “relative binding free energy” value was -0.13 kcal/mol.

Take AGTTACACGTGGTAGT: the “relative binding free energy” value was -0.03 kcal/mol.

With GATGGCACGTGAGCAG, the “relative binding free energy” value was determined as 0.13 kcal/mol.

In the case of TAAGGCACGTGACGAG, the “relative binding free energy” value worked out at 0.01 kcal/mol.

Consider TTTTACACGTGTGAAA, for which the “relative binding free energy” value was determined as 0.24 kcal/mol.

Regarding GGAGTCACGTGGGCGT, the “relative binding free energy” value turned out to be 0.04 kcal/mol.

For the sequence GTCTTCACGTGTTATA, the “relative binding free energy” value was found to be 0.14 kcal/mol.

Consider ATGCACACGTGGGGGA, for which the “relative binding free energy” value was -0.07 kcal/mol.

In the case of GTGTTCACGTGTGTAA, the “relative binding free energy” value worked out at 0.33 kcal/mol.

On to TTTGTCACGTGTTGTC, for which the “relative binding free energy” value was determined as 0.1 kcal/mol.

Take TTTAACACGTGCGGGA: the “relative binding free energy” value came out at 0.08 kcal/mol.

TGCGTCACGTGATGGA: the “relative binding free energy” value amounted to 0.29 kcal/mol.

As to AGAGACACGTGGGGGC, the “relative binding free energy” value is -0.06 kcal/mol.

For GGCGTCACGTGCGTTT, the “relative binding free energy” value was 0.04 kcal/mol.

On to ATAGTCACGTGTAGTA, for which the “relative binding free energy” value came to 0.12 kcal/mol.

Take GTGATCACGTGTGCGT: the “relative binding free energy” value was 0.11 kcal/mol.

With GGCTGCACGTGGAGTA, the “relative binding free energy” value came out at 0.03 kcal/mol.

AAGATCACGTGAGTGG: the “relative binding free energy” value amounted to 0.16 kcal/mol.

In the case of TGTGACACGTGGTGGC, the “relative binding free energy” value was -0.02 kcal/mol.
